Results published in PubChem BioAssay AID1457 (National Center for Advancing Translational Sciences (NCATS), 2008).
About 730 (0.35%) of roughly 210,000 compounds were called active. The inconclusive results got no clear call from the source; some entries with a clear call stand among them for comparison. Calls come from the whole dose curve; as a rule, active = well fitted inhibition curve with a large enough effect; inconclusive = small, poorly fitted or top-dose-only effect; inactive = no such curve, though single readings can be large or run the other way. A potency beside an inconclusive call is a rough fit, not a confirmed value.
Potency is the fitted concentration of half-maximal effect.

Assay: qHTS Assay for Identifying the Cell-Membrane Permeable IMPase Inhibitors: Potentiation with Lithium; note: nearly all actives have a fitted effect of over 50% in size
Conditions: CHO-M1 cells, IP1 TR-FRET (IP-One), carbachol + lithium; series mostly up to 59.4 µM
Method in brief: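 Concentration–response in CHO-M1 cells, lithium-potentiated; 30 min at 37C. IP1 detected by competitive TR-FRET after 10 min lysis at RT. Hill-fitted AC50.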
In the case of `Cc1nc2c(C)cccn2c1/C(O)=C1\C(=O)C(=O)N(CCN2CCOCC2)C1c1cccs1` (stereo unspecified), the Potency is reported as inconclusive: 8.91 µM [inhibitor, partial curve].
With `COc1ccc2c(c1)c(CCN1C(=O)c3ccccc3C1=O)cn2C(=O)c1ccco1` the Potency was active: 8.91 µM.
With `COc1ccc(CNC(=O)CCSCc2ccccc2C)cc1` the Potency was “inactive”.
For `O=C(c1ccccc1NS(=O)(=O)c1cccc2cccnc12)N1CCOCC1`, the Potency was inconclusive: 5.01 µM [inhibitor, single point].
With `C=CCn1c(=S)[nH]c2scc(-c3cccs3)c2c1=O` the Potency was active: 11.2 µM.
With `COc1ccc2c(c1)O[C@@H](c1ccc3c(c1)OCO3)[C@H](OC(=O)NS(=O)(=O)c1ccc(F)cc1)C2=O` the Potency was “inactive”.
With `Cc1ccc(S(=O)(=O)NCc2ccc(C(=O)N3CCCC3)cc2)cc1` the Potency was “inactive”.
In the case of `CC(C)OCC(O)CS(=O)(=O)Cc1ccccc1` (stereo unspecified), the Potency is reported as “inactive”.
In the case of `Cc1nc(SCC(=O)c2ccc(Cl)s2)c2oc3ccccc3c2n1`, the Potency is reported as inconclusive: 2.82 µM [inhibitor, full curve, poor fit].
With `C/C(N)=C(/C#N)C(=O)CSc1nc2scc(-c3ccccc3)c2c(=O)n1C` the Potency was “inactive”.
With `C=CCNc1oc(-c2cccc3ccccc23)nc1C#N` the Potency was inconclusive: 15.8 µM [inhibitor, single point].
In the case of `Cc1ccc(S(=O)(=O)N2CCC(C(=O)Nc3nnc(C4CCCC4)s3)CC2)cc1`, the Potency is reported as inconclusive: 2.82 µM [inhibitor, partial curve, poor fit].
With `CCCS(=O)(=O)N1CCN(C(=O)c2ccco2)CC1` the Potency was inconclusive: 0.501 µM [inhibitor, full curve, poor fit].
In the case of `CCc1ccc(N2C(=O)CN(Cc3cc(OC)c(OC)c(OC)c3)C2=S)cc1`, the Potency is reported as “inactive”.
For `COc1ccc(C(=O)OCC(=O)c2c(N)n(C)c(=O)n(C)c2=O)cc1OC`, the Potency was inconclusive: 28.2 µM [inhibitor, single point].
In the case of `c1ccc(-c2nc3ccccc3o2)nc1`, the Potency is reported as “inactive”.
With `CCNC(=S)N1CCN(Cc2ccccc2)CC1` the Potency was “inactive”.
With `CC(=O)OC[C@@]12C(=O)[C@@H](O)[C@@H](C)[C@]3(C[C@@H](c4ccoc4)O[C@@H]3OC(C)=O)[C@H]1CCC[C@]21CO1` the Potency was “inactive”.
With `CCn1c(=S)[nH]c2nc3c(cc2c1=O)CCCC3` the Potency was inconclusive: 31.6 µM [inhibitor, partial curve].
With `FC(F)(F)c1cccc(CNc2ncccc2-c2nc3cc(Cl)ccc3o2)c1` the Potency was inconclusive: 28.2 µM [inhibitor, single point].
With `COc1ccc(C2(CNC(=O)CCC(=O)O)CCCC2)cc1OC` the Potency was inconclusive: 28.2 µM [inhibitor, single point].
In the case of `S=C(NCC(c1ccco1)N1CCCC1)Nc1ccccc1` (stereo unspecified), the Potency is reported as inconclusive: 5.01 µM [inhibitor, single point].
For `C=CCNC(=O)C1CCN(c2c([N+](=O)[O-])cc(C(F)(F)F)cc2[N+](=O)[O-])CC1`, the Potency was inconclusive: 12.6 µM [inhibitor, single point].
For `Cc1cccc(S(=O)(=O)c2c(N)n(/N=C/c3ccccc3)c3nc4ccccc4nc23)c1`, the Potency was inconclusive: 11.2 µM [inhibitor, single point].
With `c1nc2nc3c(c(N4CCOCC4)n2n1)CCCC3` the Potency was “inactive”.
In the case of `COCCn1c(=O)c(-c2cccs2)nc2cnc(Nc3ccccc3)nc21`, the Potency is reported as inconclusive: 28.2 µM [inhibitor, single point].
For `CC1CCCN(CCCNC(=O)CCn2nc(-c3ccccc3)ccc2=O)C1` (stereo unspecified), the Potency was “inactive”.
For `COc1ccc(CCNC(=O)CSc2nnc(Cc3csc(N)n3)n2C)cc1OC`, the Potency was “inactive”.
With `COC(=O)CSc1nc2cc3c(cc2cc1C#N)OCO3` the Potency was inconclusive: 22.4 µM [inhibitor, single point].
For `Cc1cc(=O)oc2c(CN3CCC(C)CC3)c(O)c(Cl)cc12`, the Potency was inconclusive: 28.2 µM [inhibitor, single point].
With `N#Cc1c(-c2cccs2)cc(-c2ccccn2)nc1N` the Potency was inconclusive: 28.2 µM [inhibitor, single point].
In the case of `c1ccc2[nH]c(CSc3ncnc4c3oc3ccccc34)nc2c1`, the Potency is reported as inconclusive: 8.91 µM [inhibitor, partial curve].
With `CCN(CC)S(=O)(=O)c1ccc(-c2nnc(SCC(=O)Nc3nc(C)cs3)o2)cc1` the Potency was “inactive”.
In the case of `COc1cccc([C@@H]2Oc3ccc(OC)cc3C(=O)[C@H]2OC(=O)NCc2ccco2)c1`, the Potency is reported as “inactive”.
In the case of `Cc1ccc(NC(=S)NC(=O)c2sc3ccccc3c2Cl)c(C(=O)O)c1`, the Potency is reported as inconclusive: 10 µM [inhibitor, single point].
In the case of `COc1ccccc1N1CCN(C(c2ccc(N(C)C)cc2)c2nnnn2CCc2ccccc2)CC1` (stereo unspecified), the Potency is reported as “inactive”.
In the case of `COc1ccc(-c2nc3cnc(OC)nc3n(CCc3ccccc3)c2=O)cc1`, the Potency is reported as active: 7.08 µM.
For `COc1cccc(-c2cc(=O)c3cc(NC(=O)c4ccc(Cl)cc4)ccc3[nH]2)c1`, the Potency was inconclusive: 35.5 µM [inhibitor, single point].
In the case of `CCOC(=O)CSc1nc(N)c(C#N)c(-c2ccc(OCC)cc2)c1C#N`, the Potency is reported as inconclusive: 28.2 µM [inhibitor, single point].
For `Cc1cc(C(=O)Nc2nnc(C3CCCCC3)s2)cs1`, the Potency was inconclusive: 11.2 µM [inhibitor, single point].
With `CCOC(=O)C1=C(C)Nc2ccccc2N=C1NC(=O)/C=C/c1ccc(OC)cc1OC` the Potency was “inactive”.
With `CCOC(=O)Nc1ccc2c(COC(=O)CNS(=O)(=O)c3cccc(Br)c3)cc(=O)oc2c1` the Potency was inconclusive: 12.6 µM [inhibitor, single point].
With `COc1ccc(-c2ccc3c(n2)sc2c(=O)[nH]c(=O)[nH]c23)cc1OC` the Potency was inconclusive: 10 µM [inhibitor, partial curve].
In the case of `Cn1c(N)c(C(=O)COc2ccc(Cl)cc2Cl)c(=O)n(C)c1=O`, the Potency is reported as inconclusive: 28.2 µM [inhibitor, single point].
For `Cc1cc(C)nc(SCC(=O)Nc2ncc3c(n2)CC(C)(C)CC3=O)n1`, the Potency was “inactive”.
For `Cc1ccc(C)c2nc(Cl)c(C#N)cc12`, the Potency was inconclusive: 28.2 µM [inhibitor, single point].
